The record followed here is ChEMBL document CHEMBL4888484, “Replenishing the malaria drug discovery pipeline: Screening and hit evaluation of the MMV Hit Generation Library 1 (HGL1) against asexual blood stage Plasmodium falciparum ,using a nano luciferase reporter read-out” (2022).

Out of some 150,000 compounds screened, about 540 (0.36%) showed an effect of 50% or more. The list shows a part of the results.

The subject of the assay is Plasmodium falciparum. Nature of the assay: Primary screen in NF54 nanoGlo assay, in single point, at 2uM, 72h; a lower Z score goes with more inhibition. The note with it: timepoint 72 hour. The assay is classed as functional, Erythrocyte.
Consider `CCc1nsc(N2CCCC(C)C2CO)n1` (centres undefined), for which the “% Inhibition” value is given as -5% and the Z score was 0.7.

Take `CCOC(=O)C1CCN(C(=O)[C@H](C)NC(=O)c2cc3n(n2)CCCN(Cc2cccc(C)c2)C3=O)CC1`: the “% Inhibition” value is -7% and the Z score turned out to be 0.83.

As to `COC(=O)[C@]1(C)CN(C(=O)Nc2c[nH]nc2-c2nccs2)C[C@H]1C`, the “% Inhibition” value is 7% and the Z score is -1.07.

Regarding `CCCOc1cccc2c(NC[C@H]3CC(=O)N(C4CC4)C3)ccnc12`, the “% Inhibition” value is reported as -3% and the Z score was 0.49.

Consider `CO[C@@H](CNS(=O)(=O)c1c(C)csc1C(=O)O)C1CCCC1`, for which the “% Inhibition” value is -6% and the Z score was 1.16.

Take `COc1cc(NC(=O)c2ccccc2)c(C(=O)N2CCN(c3ccccc3)CC2)cc1OC`: the “% Inhibition” value is recorded as -9% and the Z score came to 1.79.

Consider `O=C(NCc1cc(F)c(Cl)cc1F)N1C2CCC1CC(O)C2` (centres undefined), for which the “% Inhibition” value is on record as -1% and the Z score was 0.27.

For the molecule `Cc1cc(C(F)(F)F)nc2[nH]nc(N3C(=O)C4CCCCC4C3=O)c12` (centres undefined), the “% Inhibition” value was 5% and the Z score was -0.68.

Turning to `Fc1ccc2nc(C3CC3)cc(-c3nc([C@H]4CCOC4)no3)c2c1`, the “% Inhibition” value was -4% and the Z score was 0.56.

Consider `O=C(Nc1ccccc1N1CCCC1)[C@H]1CCCN(C(=O)c2ccoc2)C1`, for which the “% Inhibition” value was -13% and the Z score is on record as 1.46.

`CO[C@H]1CCN(C(=O)CC(=O)Nc2cccc(Cl)c2C)C1`: the “% Inhibition” value is recorded as 2% and the Z score is listed as -0.44.

In the case of `CC(C)CN1C(=O)CC[C@@H]2CN(C(=O)c3cc[nH]n3)CC[C@@H]21`, the “% Inhibition” value is on record as -7% and the Z score was found to be 1.48.

On to `Cc1ccc(CN2CCCN(C(=O)C3CCN(S(=O)(=O)c4ccc(C)cc4C)CC3)CC2)cc1`, for which the “% Inhibition” value is given as 25% and the Z score is recorded as -3.17.

For `c1ccc(-c2nc(CNC[C@H]3CN(C4CC4)CCO3)cs2)nc1`, the “% Inhibition” value worked out at 14% and the Z score is reported as -2.17.

`O=S(=O)(CCCN1CCOCC1)NCc1cc(F)ccc1F`: the “% Inhibition” value is -5% and the Z score is recorded as 0.91.

Take `NC(=O)c1cccnc1NCCN1CCCC[C@@H]1CO`: the “% Inhibition” value is on record as -2% and the Z score was found to be 0.23.

In the case of `COc1ccc(CN[C@H]2[C@H](O)[C@H](O)C[C@@H]2c2ccc(N3CCOCC3)nc2)cn1`, the “% Inhibition” value was 26% and the Z score was -2.97.

`c1cnc(-c2nc(Cn3cnnc3)cs2)nc1`: the “% Inhibition” value is -9% and the Z score came to 1.18.

As for `CN(C)C(=O)N1CCC(c2nc(C3CC3)nn2Cc2ccc(F)cc2)CC1`, the “% Inhibition” value is reported as -7% and the Z score is reported as 1.35.

Take `Cc1cccc(C(=O)N2C[C@H](C(=O)O)[C@@H](c3ccccc3C)C2)n1`: the “% Inhibition” value is given as -3% and the Z score is 0.6.

With `CCCn1c(=O)c2sc(N3CCCCC3)nc2n(CC(=O)Nc2ccc(F)cc2Cl)c1=O`, the “% Inhibition” value is -26% and the Z score stood at 2.27.

Consider `COc1ccc(NC(=O)c2scc(-c3cccc(F)c3)c2S(=O)(=O)N(C)c2ccccc2)cc1`, for which the “% Inhibition” value was 14% and the Z score is listed as -1.55.

Take `COc1ncccc1CNC(=O)N1CCC1`: the “% Inhibition” value was -4% and the Z score came out at 0.77.

On to `O=C(CC1CC2CCC1C2)Nc1ccccc1C1CCC(=O)N1` (centres undefined), for which the “% Inhibition” value is given as 16% and the Z score is -1.83.

In the case of `Cn1c(=O)c2c(nc3n(-c4ccc(O)cc4)c(-c4ccccc4)cn23)n(C)c1=O`, the “% Inhibition” value was 27% and the Z score is given as -3.08.

Take `C/C(=C\c1cc(Cl)ccc1O)CN1CCC2(CC1)CNC(=O)C2`: the “% Inhibition” value came to 18% and the Z score is recorded as -2.29.

For the molecule `CC(Oc1cccc(C#N)c1)C(=O)N1CCOC2CCCCC21` (centres undefined), the “% Inhibition” value was -4% and the Z score amounted to 0.49.

For the molecule `CC(C)Cc1ccc(C(=O)Nc2csc(C(N)=O)c2)s1`, the “% Inhibition” value was 4% and the Z score was -0.48.

As for `CN(Cc1ccc2cn[nH]c2c1)C1CCOC(c2ccc(F)cc2)C1` (centres undefined), the “% Inhibition” value is on record as -14% and the Z score turned out to be 1.63.

On to `Cc1nc(N(C)C)nc(N2C[C@H](O)[C@@H](N(C)C)C2)n1`, for which the “% Inhibition” value was -2% and the Z score was found to be 0.33.

`CC(Oc1cccnc1)C(=O)N1CCCCC1c1ncon1` (centres undefined): the “% Inhibition” value was -1% and the Z score turned out to be 0.14.

`CC(C)(C)OC(=O)NCc1cccc(NCc2ncc[nH]2)c1`: the “% Inhibition” value was -6% and the Z score was determined as 0.81.

`COC1(CNC(=O)Nc2ccccc2N(C)C)CCC1`: the “% Inhibition” value is on record as -10% and the Z score was 1.66.

For `CC(C)(O)C1CCN(Cc2ccc3cc[nH]c3n2)CC1`, the “% Inhibition” value was 3% and the Z score was -0.58.

For `C[C@@H](C(=O)Nc1ncccc1O)n1nc2c(cc1=O)CCC2`, the “% Inhibition” value turned out to be 10% and the Z score was -1.35.

Consider `COCCc1noc(-c2nc(-c3ccccc3)no2)n1`, for which the “% Inhibition” value was -3% and the Z score is 0.57.

In the case of `CC(C)c1nnc(NCCc2nccs2)s1`, the “% Inhibition” value was 4% and the Z score is on record as -0.59.

On to `CN(C)c1ccc(C2=Nc3ccccc3C(c3ccccc3)(c3ccccc3)N2)cc1`, for which the “% Inhibition” value amounted to 12% and the Z score is on record as -1.86.

On to `Cc1cc(S(N)(=O)=O)c(C)cc1N`, for which the “% Inhibition” value is 5% and the Z score is on record as -0.5.

Consider `CN(C)[C@@H](C(=O)N1CCC(C(=O)N2CCCC2)CC1)c1ccc2c(c1)OCO2`, for which the “% Inhibition” value is -6% and the Z score is given as 1.11.

For the molecule `O=C(NCc1ccccn1)NCC1(c2ccccc2)CC1`, the “% Inhibition” value was -13% and the Z score came to 1.66.

As for `O=C(c1c[nH]c(=O)c(Br)c1)N1CCN(C2CCC2)CC1`, the “% Inhibition” value is listed as -10% and the Z score stood at 1.48.

As usually defined, the % Inhibition is the relative decrease from the control value, in per cent.
